Reference: paper PMC5589878, “Development of Fluorescent Probes that Target Serotonin 5-HT2B Receptors” (Scientific Reports, 2017)

Legend:
[1] = target: T1, 5-HT2B receptors (Homo sapiens, UniProt P41595); assay: Radioligand competition binding assay at human 5-HT2B receptors; settings: [3H]LSD, membranes from CHO-K1-5-HT2B cells
[2] = target: T1, 5-HT2B receptors; assay: Functional assay of IPs accumulation at human 5-HT2B receptors; assay type: cell-based; settings: CHO-K1-5-HT2B cells
[3] = target: T1, 5-HT2B receptors; assay: Labelling of 5-HT2B receptors in live CHO-K1-5-HT2B cells (fluorescence microscopy, plate reader, confocal); assay type: cell-based

T1 sequence (P41595 whole entry): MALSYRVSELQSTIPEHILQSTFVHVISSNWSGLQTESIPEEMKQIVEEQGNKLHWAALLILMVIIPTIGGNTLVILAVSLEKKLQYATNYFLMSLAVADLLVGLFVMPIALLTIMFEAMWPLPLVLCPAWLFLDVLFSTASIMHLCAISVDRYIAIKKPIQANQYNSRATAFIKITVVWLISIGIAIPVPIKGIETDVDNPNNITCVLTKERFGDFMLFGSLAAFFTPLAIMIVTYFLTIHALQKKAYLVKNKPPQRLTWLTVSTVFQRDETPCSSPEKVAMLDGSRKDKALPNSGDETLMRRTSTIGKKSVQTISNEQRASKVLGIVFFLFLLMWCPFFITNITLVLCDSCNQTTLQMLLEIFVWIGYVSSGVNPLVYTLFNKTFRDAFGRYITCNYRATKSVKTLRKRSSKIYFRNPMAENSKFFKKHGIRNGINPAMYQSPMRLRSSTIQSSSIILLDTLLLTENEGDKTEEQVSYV

| Compound | Functional data at 5-HT2B % at 1 μM [2] | EC50 [2] | also measured |
| --- | --- | --- | --- |
| 3-(2-(2-(2-(2-aminopropyl)-5-iodo-4-methoxyphenoxy)ethoxy)ethoxy)-N-(3-((5-(dimethylamino)naphthalene)-1-sulfonamido)propyl)propanamide [10d] | 5% |  | Binding at 5-HT2 receptors % at 1 μM 5-HT2B [1]: 37.4% |
| CCN(CC)c1ccc2c(-c3ccccc3C(=O)NCCC(=O)NCCC(=O)NCCCOCCOCCOCCCNC(=O)CCCOc3cc(I)c(OC)cc3CC(C)N)c3ccc(=[N+](CC)CC)cc-3oc2c1 (stereo not shown) [12i, N-(9-(2-((26-(2-(2-aminopropyl)-5-iodo-4-methoxyphenoxy)-3,7,23-trioxo-12,15,18-trioxa-4,8,22-triazahexacosyl)carbamoyl)phenyl)-6-(diethylamino)-3H-xanthen-3-ylidene)-N-ethylethanaminium] |  |  | location of probe fluorescence in CHO-K1-5-HT2B cells (confocal microscopy) ([3]; 3 μM, 10 min incubation at 37 °C): mainly located in intracellular compartments; specific labelling of 5-HT2B receptors in CHO-K1-5-HT2B cells versus parental CHO-K1 cells ([3]; live cells, high content fluorescence imaging, at least three concentrations): concentration-dependent specific labelling |
| COC(=O)c1c(C(=O)OCCCNC(=O)CCCOc2cc(I)c(OC)cc2CC(C)N)c2cc3ccccc3cc2c2cc3ccccc3cc12 (stereo not shown) [12g, 6-(3-(4-(2-(2-aminopropyl)-5-iodo-4-methoxyphenoxy)butanamido)pro-pyl) 7-methyl pentaphene-6,7-dicarboxylate] |  | 259 nM |  |
| CCCCCCC(CCCCCC)N1C(=O)c2ccc3c4ccc5c6c(ccc(c7ccc(c2c37)C1=O)c64)C(=O)N(CCCNC(=O)CCCOc1cc(I)c(OC)cc1CC(C)N)C5=O (stereo not shown) [12h, 4-(2-(2-aminopropyl)-5-iodo-4-methoxyphenoxy)-N-(3-(1,3,8,10-tetraoxo-9-(tridecan-7-yl)-3,8,9,10-tetrahydroanthra[2,1,9-def:6,5,10-d′e′f′]diisoquinolin-2(1H)-yl)propyl)butanamide] |  | 4190 nM |  |
| COc1cc(CC(C)N)c(OCCCCCCCCCCC(=O)NCCCNS(=O)(=O)c2cccc3c(N(C)C)cccc23)cc1I (stereo not shown) [10c, 11-(2-(2-aminopropyl)-5-iodo-4-methoxyphenoxy)-N-(3-((5-(dimethyl-amino)naphthalene)-1-sulfonamido)propyl)undecanamide] | 31% |  |  |
